# The list shows a part of the results.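 The calls were made as follows: active = more than 2 SD below the DMSO mean: under 0.85 at 10 µM or 0.885 at 1 µM; inactive = the rest.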 Most values come without repeats; read them as rough.
# System: RPE1
# Assay: nucleolar normality score relative to DMSO (fraction of DMSO control); RPE1 is a non-cancer human cell line; higher = more normal nucleoli (less nucleolar stress)
# Conditions: 24 h
# 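Also: fixed cells immunolabelled for nucleolin and UBF, 40 image fields per well in 384-well plates, per-cell score = nucleolin nucleolar/nucleoplasm intensity ratio divided by the matching UBF ratio.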
Compound,nucleolar normality score (1 µM),nucleolar normality score (10 µM)
COc1ccc2c(c1)/C(=C/c1cnc[nH]1)C(=O)N2,inactive: 0.907,inactive: 1.02
C[C@H]1C(=O)O[C@@H]2CCN3CC=C(COC(=O)[C@](C)(O)[C@]1(C)O)[C@H]23 [Monocrotaline],inactive: 1,inactive: 0.92
CC(=O)OC12COC1CC(O)C1(C)C(=O)C(O)C3=C(C)C(O)CC(O)(C(OC(=O)c4ccccc4)C21)C3(C)C (stereo not given) [10-Deacetylbaccatin-III],inactive: 0.994,inactive: 0.886
O=P1(NCCCl)OCCCN1CCCl (stereo not given) [Ifosfamide],inactive: 0.947,inactive: 1.02
O=C1CCC[C@@H]2[C@H]3CCCN4CCC[C@@H](CN12)[C@@H]34 [(+)-Matrine],inactive: 0.977,inactive: 1.03
CN1C(=O)[C@@]23C[C@]4([C@]56C[C@@]78SS[C@@](CO)(C(=O)N7[C@H]5Nc5ccccc56)N(C)C8=O)c5ccccc5N[C@@H]4N2C(=O)[C@]1(CO)SS3 [Chaetocin],active: 0.626,active: 0.292
Cc1cc(SCc2sc(-c3ccc(C(F)(F)F)c(F)c3)nc2C)ccc1OCC(=O)O,inactive: 1,inactive: 1.09
CCC1(c2ccc(N)cc2)CCC(=O)NC1=O (stereo not given) [Aminoglutethimide],inactive: 1.04,inactive: 1.06
O=C1CCC[C@@H]2[C@H]3CCCN4CCC[C@H](CN12)[C@@H]34 [Sophoridine],inactive: 0.987,active: 0.833
O=c1[nH]c2ccccc2n1C1CCN(Cc2ccc(-c3[nH]c4cc5ncnc5cc4nc3-c3ccccc3)cc2)CC1,inactive: 1.09,inactive: 1.02
Cc1c([C@H](C)[C@@H]2NC[C@@H](C)C[C@H]2O)ccc2c1C[C@H]1[C@H]2CC=C2C[C@@H](O)CC[C@@]21C [Veratramine],inactive: 1.01,inactive: 0.89
CC(=O)Nc1ccc(OC[C@](C)(O)C(=O)Nc2ccc([N+](=O)[O-])c(C(F)(F)F)c2)cc1 [Andarine],inactive: 0.936,inactive: 1.02
"C[C@](O)(COc1ccc(C#N)cc1)C(=O)Nc1ccc(C#N)c(C(F)(F)F)c1 [Ostarine (GTx-024, MK-2866 )]",inactive: 0.977,inactive: 1.07
C=C(C)[C@H]1Cc2c(ccc3c2O[C@@H]2COc4cc(OC)c(OC)cc4[C@@H]2C3=O)O1 [Rotenone (Barbasco)],inactive: 0.99,inactive: 0.984
O=C(O)CNC(=O)c1c(O)c2ccccc2n(Cc2ccccc2)c1=O,inactive: 1.09,inactive: 1.1
CC(C)=CCC[C@]1(C)C=Cc2c(O)c3c(c(CC=C(C)C)c2O1)O[C@]12C(=C[C@@H]4C[C@H]1C(C)(C)O[C@@]2(C/C=C(/C)C(=O)O)C4=O)C3=O [Gambogic Acid],inactive: 1.02,inactive: 1.07
CCNC(=O)C[C@@H]1N=C(c2ccc(Cl)cc2)c2cc(OC)ccc2-n2c(C)nnc21,inactive: 0.962,inactive: 1.06
C[C@H]1CCC/C=C/[C@@H]2C[C@H](O)C[C@H]2[C@H](O)/C=C/C(=O)O1 [Brefeldin A],active: 0.482,active: 0.41
COc1cc(-n2c(=S)[nH]c3ccccc3c2=O)c(Cl)cc1Cl [Mdivi-1],inactive: 0.982,inactive: 1.04
O=C(O)CCCc1ccc(N(CCCl)CCCl)cc1 [Chloroambucil],inactive: 1.06,inactive: 1.05
COc1cc([C@@H]2c3cc4c(cc3[C@H](O)[C@H]3COC(=O)[C@@H]23)OCO4)cc(OC)c1OC [Picropodophyllin (PPP)],inactive: 0.968,inactive: 0.913
CC(=O)Oc1ccc(C=Cc2cc(OC(C)=O)cc(OC(C)=O)c2)cc1 [Acetyl Resveratrol],inactive: 1.03,inactive: 0.998
COCC1(CO)C(=O)C2CCN1CC2 (stereo not given),inactive: 0.9,inactive: 0.953
"C/C(=C\c1csc(C)n1)[C@@H]1C[C@@H]2O[C@]2(C)CCC[C@H](C)[C@H](O)[C@@H](C)C(=O)C(C)(C)[C@@H](O)CC(=O)O1 [Patupilone (EPO906, Epothilone B)]",active: 0.744,active: 0.776
O=S(=O)(CC1CS1)c1ccc(Oc2ccccc2)cc1 (stereo not given),inactive: 0.899,inactive: 0.962

# Source: the supplement of paper PMC10723795
